# Assay results published in the supplement of paper PMC8728848.
# The list shows a part of the results.
# B1: AT1G73650(15) (Arabidopsis thaliana), F4HRY1 (protein)
# chain: MGTVLDSHFLALTAIVTVIYQFIFFVITALFKFDQVTDFAGSTNFVILAVLTLVLKASWHFRQIVLTLLVVVWGLRLGIFLLMETRILQWGEDRRFDEQRGNIVRLIIFWTLQAVWVWTVSLPLTLVNASDGGGSLKPADVIGWTMETWVFGFLIEAAADQQKLSFKNSPENRGKWCDVGVWKYSRHPNYFGEMETLLWWGIFVAASPVLEGAEYLVIFGPLFLTLLLLFVSGIPLLEASADKKHGNSGAYRSYKKTTSPLILFPRGVYGNLPGWFKTVFLFEFPFYSRNLPQEGRLQNSKEKEVKDD
# Tests used:
# Experiment in all cases: glycan array binding signal (z-score within array); higher = stronger binding
# Settings in all cases: glycan notation: IUPAC condensed, linker removed
# [1] = biological target: Neu5Ac(a2-3)Gal(b1-3)GlcNAc6S
# Procedure, shortened: (§1)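 The Consortium for Functional Glycomics database supplied 3228 glycan arrays, of which those lacking an available protein sequence were dropped. The binding signal, a within-array Z-score, was averaged across arrays of the same protein sequence and across linkers. Negative scores can be read as non-binding.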
# [2] = biological target: Neu5Ac(a2-3)Gal(b1-3)[Fuc(a1-4)]GlcNAc
# Procedure, shortened: as §1
# [3] = biological target: Neu5Ac(a2-3)Gal(b1-3)[Fuc(a1-4)]GlcNAc(b1-3)Gal(b1-3)[Fuc(a1-4)]GlcNAc
# Procedure, shortened: as §1
# [4] = biological target: Neu5Ac(a2-3)Gal(b1-3)[Fuc(a1-4)]GlcNAc(b1-3)Gal(b1-4)[Fuc(a1-3)]GlcNAc
# Procedure, shortened: as §1
# [5] = biological target: Neu5Ac(a2-3)Gal(b1-3)[GlcNAc(b1-6)]GalNAc
# Procedure, shortened: as §1
# [6] = biological target: Neu5Ac(a2-3)Gal(b1-3)[Neu5Ac(a2-6)]GalNAc
# Procedure, shortened: as §1
# [7] = biological target: Neu5Ac(a2-3)Gal(b1-3)[Neu5Ac(a2-6)]GlcNAc(b1-3)[Fuc(a1-3)[Gal(b1-4)]GlcNAc(b1-6)]Gal(b1-4)Glc
# Procedure, shortened: as §1
# [8] = biological target: Neu5Ac(a2-3)Gal(b1-3)]Neu5Ac(a2-3)Gal(b1-4)]GlcNAc
# Procedure, shortened: as §1
# Neu5Ac(a2-3)Gal(b1-4)Glc = biological target: Neu5Ac(a2-3)Gal(b1-4)Glc
# Procedure, shortened: as §1
# [9] = biological target: Neu5Ac(a2-3)Gal(b1-4)GlcNAc
# Procedure, shortened: as §1
# [10] = biological target: Neu5Ac(a2-3)Gal(b1-4)GlcNAc(b1-2)Man
# Procedure, shortened: as §1
# [11] = biological target: Neu5Ac(a2-3)Gal(b1-4)GlcNAc(b1-2)Man(a1-3)[GlcNAc(b1-4)][Neu5Ac(a2-3)Gal(b1-4)GlcNAc(b1-2)Man(a1-6)]Man(b1-4)GlcNAc(b1-4)GlcNAc
# Procedure, shortened: as §1
# [12] = biological target: Neu5Ac(a2-3)Gal(b1-4)GlcNAc(b1-2)Man(a1-3)[Neu5Ac(a2-3)Gal(b1-4)GlcNAc(b1-2)Man(a1-6)]Man(b1-4)GlcNAc(b1-4)GlcNAc
# Procedure, shortened: as §1
# [13] = biological target: Neu5Ac(a2-3)Gal(b1-4)GlcNAc(b1-2)Man(a1-3)[Neu5Ac(a2-3)Gal(b1-4)GlcNAc(b1-2)Man(a1-6)]Man(b1-4)GlcNAc(b1-4)[Fuc(a1-6)]GlcNAc
# Procedure, shortened: as §1
# [14] = biological target: Neu5Ac(a2-3)Gal(b1-4)GlcNAc(b1-2)Man(a1-3)[Neu5Ac(a2-6)Gal(b1-4)GlcNAc(b1-2)Man(a1-6)]Man(b1-4)GlcNAc(b1-4)GlcNAc
# Procedure, shortened: as §1
# [15] = biological target: Neu5Ac(a2-3)Gal(b1-4)GlcNAc(b1-2)[Neu5Ac(a2-3)Gal(b1-4)GlcNAc(b1-4)]Man(a1-3)[GlcNAc(b1-4)][Neu5Ac(a2-3)Gal(b1-4)GlcNAc(b1-2)[Neu5Ac(a2-3)Gal(b1-4)GlcNAc(b1-6)]Man(a1-6)]Man(b1-4)GlcNAc(b1-4)GlcNAc
# Procedure, shortened: as §1
# [16] = biological target: Neu5Ac(a2-3)Gal(b1-4)GlcNAc(b1-2)[Neu5Ac(a2-3)Gal(b1-4)GlcNAc(b1-4)]Man(a1-3)[GlcNAc(b1-4)][Neu5Ac(a2-3)Gal(b1-4)GlcNAc(b1-4)Man(a1-6)]Man(b1-4)GlcNAc(b1-4)GlcNAc
# Procedure, shortened: as §1
# [17] = biological target: Neu5Ac(a2-3)Gal(b1-4)GlcNAc(b1-2)[Neu5Ac(a2-3)Gal(b1-4)GlcNAc(b1-6)]Man(a1-6)[Neu5Ac(a2-3)Gal(b1-4)GlcNAc(b1-2)Man(a1-3)]Man(b1-4)GlcNAc(b1-4)GlcNAc
# Procedure, shortened: as §1
# [18] = biological target: Neu5Ac(a2-3)Gal(b1-4)GlcNAc(b1-2)[Neu5Ac(a2-3)Gal(b1-4)GlcNAc(b1-6)]Man(a1-6)[Neu5Ac(a2-3)Gal(b1-4)GlcNAc(b1-2)Man(a1-3)][GlcNAc(b1-4)]Man(b1-4)GlcNAc(b1-4)GlcNAc
# Procedure, shortened: as §1
# [19] = biological target: Neu5Ac(a2-3)Gal(b1-4)GlcNAc(b1-3)Gal
# Procedure, shortened: as §1
# [20] = biological target: Neu5Ac(a2-3)Gal(b1-4)GlcNAc(b1-3)Gal(b1-3)GlcNAc
# Procedure, shortened: as §1
# [21] = biological target: Neu5Ac(a2-3)Gal(b1-4)GlcNAc(b1-3)Gal(b1-4)GlcNAc
# Procedure, shortened: as §1
# [22] = biological target: Neu5Ac(a2-3)Gal(b1-4)GlcNAc(b1-3)Gal(b1-4)GlcNAc(b1-2)Man(a1-3)[Neu5Ac(a2-3)Gal(b1-4)GlcNAc(b1-3)Gal(b1-4)GlcNAc(b1-2)Man(a1-6)]Man(b1-4)GlcNAc(b1-4)GlcNAc
# Procedure, shortened: as §1
# [23] = biological target: Neu5Ac(a2-3)Gal(b1-4)GlcNAc(b1-3)Gal(b1-4)GlcNAc(b1-3)Gal(b1-4)GlcNAc
# Procedure, shortened: as §1
# [24] = biological target: Neu5Ac(a2-3)Gal(b1-4)GlcNAc(b1-3)Gal(b1-4)GlcNAc(b1-3)Gal(b1-4)GlcNAc(b1-2)Man(a1-3)[Neu5Ac(a2-3)Gal(b1-4)GlcNAc(b1-3)Gal(b1-4)GlcNAc(b1-3)Gal(b1-4)GlcNAc(b1-2)Man(a1-6)]GalNAc
# Procedure, shortened: as §1
# [25] = biological target: Neu5Ac(a2-3)Gal(b1-4)GlcNAc(b1-3)Gal(b1-4)GlcNAc(b1-3)GalNAc
# Procedure, shortened: as §1
# [26] = biological target: Neu5Ac(a2-3)Gal(b1-4)GlcNAc(b1-3)Gal(b1-4)GlcNAc(b1-3)[Neu5Ac(a2-3)Gal(b1-4)GlcNAc(b1-3)Gal(b1-4)GlcNAc(b1-6)]GalNAc
# Procedure, shortened: as §1
# [27] = biological target: Neu5Ac(a2-3)Gal(b1-4)GlcNAc(b1-3)Gal(b1-4)GlcNAc(b1-6)[Gal(b1-3)]GalNAc
# Procedure, shortened: as §1
# [28] = biological target: Neu5Ac(a2-3)Gal(b1-4)GlcNAc(b1-3)Gal(b1-4)[Fuc(a1-3)]GlcNAc
# Procedure, shortened: as §1
# [29] = biological target: Neu5Ac(a2-3)Gal(b1-4)GlcNAc(b1-3)GalNAc
# Procedure, shortened: as §1
binder,measurement,setting,value
B1,glycan array binding signal (z-score),[1],-0.38
same,glycan array binding signal (z-score),[2],-0.496
same,glycan array binding signal (z-score),[3],-0.36
same,glycan array binding signal (z-score),[4],-0.002
same,glycan array binding signal (z-score),[5],-0.402
same,glycan array binding signal (z-score),[6],-0.318
same,glycan array binding signal (z-score),[7],-0.293
same,glycan array binding signal (z-score),[8],1.11
same,glycan array binding signal (z-score),Neu5Ac(a2-3)Gal(b1-4)Glc,-0.34
same,glycan array binding signal (z-score),[9],-0.423
same,glycan array binding signal (z-score),[10],-0.321
same,glycan array binding signal (z-score),[11],-0.49
same,glycan array binding signal (z-score),[12],-0.544
same,glycan array binding signal (z-score),[13],-0.367
same,glycan array binding signal (z-score),[14],-0.511
same,glycan array binding signal (z-score),[15],-0.555
same,glycan array binding signal (z-score),[16],-0.619
same,glycan array binding signal (z-score),[17],0.309
same,glycan array binding signal (z-score),[18],-0.226
same,glycan array binding signal (z-score),[19],-0.61
same,glycan array binding signal (z-score),[20],-0.316
same,glycan array binding signal (z-score),[21],-0.62
same,glycan array binding signal (z-score),[22],-0.673
same,glycan array binding signal (z-score),[23],-0.604
same,glycan array binding signal (z-score),[24],-0.387
same,glycan array binding signal (z-score),[25],0.878
same,glycan array binding signal (z-score),[26],0.537
same,glycan array binding signal (z-score),[27],-0.272
same,glycan array binding signal (z-score),[28],1.23
same,glycan array binding signal (z-score),[29],-0.553
